In all, about 81,000 sequences were measured (“one-hybrid fitness for binding parS DNA”: median about -0.17, highest 2% from about 0.51 on). The list shows a part of the results.
B1: Caulobacter ParB omega fusion; a variant is named by its letters at X, in order, B8GW30 (parent)
chain: MESVVVGEPGMSEGRRGLGRGLSALLGEVDAAPAQAPGEQLGGSREAPIEILQRNPDQPRRTFREEDLEDLSNSIREKGVLQPILVRPSPDTAGEYQIVAGERAWRAAQRAGLKTVPIMVRELDDLAVLEIGIIENVQRADLNVLEEALSYKVLMEKFERTQENIAQTIGKSXSHVANXMRLLXLPDEVQSYLVSGELTAXHARAIAAAADPVALAKQIIEGGLSVRETEALARKAPNLSAGKSKGGRPPRVKDTDTQALESDLSSVLGLDVSIDHRGSTGTLTITYATLEQLDDLCNRLTRGI

Variants of: B1
Assay: one-hybrid fitness for binding parS DNA (scaled: cognate 1, non-cognate 0); higher = stronger binding
Conditions: with parS DNA site
How it was run: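 On M9-minus-histidine containing 0.1 mM IPTG and 5 mM 3-AT, E. coli USO cells with a HIS3 reporter, site 19 bp from the promoter, grew 48 hours at 37°C to select Caulobacter ParB libraries randomised at four specificity codons. Plasmids from before and after were Illumina-sequenced, with three replicate libraries pooled and variants under 10 reads left out. Fitness is the log change in variant-to-wild-type read ratio, rescaled against cognate and non-cognate.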

| Variant | one-hybrid fitness for binding parS DNA |
| --- | --- |
| SWDV | ≤ 0.2 |
| PMQW | ≤ 0.2 |
| ARMG | ≤ 0.2 |
| EKVS | ≤ 0.2 |
| HKDG | ≤ 0.2 |
| NLQR | ≤ 0.2 |
| DRNK | ≤ 0.2 |
| EFMS | ≤ 0.2 |
| TRSE | ≤ 0.2 |
| AYDD | ≤ 0.2 |
| SVYG | ≤ 0.2 |
| PPGK | ≤ 0.2 |
| MISF | ≤ 0.2 |
| SCPG | ≤ 0.2 |
| HRKM | ≤ 0.2 |
| MWIR | ≤ 0.2 |
| RELA | ≤ 0.2 |
| HRSV | ≤ 0.2 |
| HYEC | ≤ 0.2 |
| SHFC | ≤ 0.2 |
| TTNP | ≤ 0.2 |
| NMPC | ≤ 0.2 |
| SLPR | ≤ 0.2 |
| HFNT | ≤ 0.2 |
| SFCH | ≤ 0.2 |
| TKEQ | ≤ 0.2 |

| Variant | one-hybrid fitness for binding parS DNA |
| --- | --- |
| LMQP | ≤ 0.2 |
| WHES | ≤ 0.2 |
| YEPF | ≤ 0.2 |
| EVTD | ≤ 0.2 |
| DRTK | ≤ 0.2 |
| IHWC | ≤ 0.2 |
| RMQA | 0.574 |
| IFPT | ≤ 0.2 |
| EGIS | ≤ 0.2 |
| HTDS | ≤ 0.2 |
| LFSE | ≤ 0.2 |
| AGTM | ≤ 0.2 |
| QHEW | ≤ 0.2 |
| YRMI | ≤ 0.2 |
| FLNC | ≤ 0.2 |
| EHRC | ≤ 0.2 |
| LNVM | ≤ 0.2 |
| AYCG | ≤ 0.2 |
| AGTH | ≤ 0.2 |
| AAQG | ≤ 0.2 |
| IAKT | ≤ 0.2 |
| QPLS | ≤ 0.2 |
| GYNP | ≤ 0.2 |
| YPVQ | ≤ 0.2 |
| SAVF | ≤ 0.2 |
| INRM | ≤ 0.2 |

| Variant | one-hybrid fitness for binding parS DNA |
| --- | --- |
| WGDS | ≤ 0.2 |
| FVGR | ≤ 0.2 |
| ITTV | ≤ 0.2 |
| RIQW | 0.202 |
| EKKN | ≤ 0.2 |
| DYTE | ≤ 0.2 |
| SPQE | ≤ 0.2 |
| CSFV | ≤ 0.2 |
| GIKG | ≤ 0.2 |
| CSGR | ≤ 0.2 |
| LHKY | ≤ 0.2 |
| KRKM | ≤ 0.2 |
| CCCG | ≤ 0.2 |
| QNDH | ≤ 0.2 |
| FTNF | ≤ 0.2 |
| MHMI | ≤ 0.2 |
| RVDQ | ≤ 0.2 |
| LNVF | ≤ 0.2 |
| IDNG | ≤ 0.2 |
| RMFR | ≤ 0.2 |
| HSNY | ≤ 0.2 |
| VCTG | ≤ 0.2 |
| CKKM | ≤ 0.2 |
| RLCI | ≤ 0.2 |
| PGHI | ≤ 0.2 |

— a collection of fitness landscapes (doi:10.1016/j.celrep.2020.107928)
